Test results: PubChem BioAssay AID1508642 (National Center for Advancing Translational Sciences (NCATS), 2021)
About 200 (0.47%) of roughly 43,000 compounds were called active. Roughly 12% stayed inconclusive and do not appear here. Calls follow the shape of the dose curve; as a rule, active = well fitted cell-killing curve with a large enough effect; inconclusive = small, poorly fitted or top-dose-only effect, or effect the other way; inactive = flat fitted curve, though single readings scatter. The list shows a part of the results.

assay: Cell viability qHTS assay in S16 Pmp22-F2sN cells; settings: S16 Pmp22-F2sN Schwann cells viability, CellTiter-Glo, 24 h; series mostly up to 57.5 µM; activity change, negative = cytotoxicity: at the top concentration; also: nearly all actives have a fitted effect of over 65% in size
In short: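 Used to flag compounds lowering reporter output through toxicity, this quantitative HTS measures ATP-based CellTiter-Glo luminescence in S16 Pmp22-F2sN Schwann cells after 24 h compound exposure at 37C.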
% is scaled to controls: 0 for no effect and ±100 for the full control effect.

| SMILES | activity change, negative = cytotoxicity |
| --- | --- |
| COc1ccc(C2=NS(=O)(=O)N(C)C(C(=O)NCc3ccccc3)=C2)cc1OC | inactive: -0.396% |
| CN1C(=O)c2ccccc2Sc2ccc(NC(=O)COc3ccccc3)cc21 | inactive: -27.4% |
| Cc1ccc(Cl)c(NC(=O)Nc2csc3c2CCCC3)c1 | inactive: 1.97% |
| CCc1ccccc1NC(=O)Cn1c(=O)n(CC2CCC(C(=O)NCCc3ccccc3)CC2)c(=O)c2ccccc21 (configuration not stated) | inactive: 29% |
| CCn1cc(C(=O)NCCCN(CC(C)C)CC(C)C)c(=O)c2cc(S(=O)(=O)N(C)C3CCCCC3)ccc21 | inactive: 0.318% |
| COc1ccc(NC(=O)CCc2nnc3n(C)c(=O)c4sccc4n23)cc1Cl | inactive: -1.82% |
| COc1cccc(N2C(=O)N(Cc3ccc(C#N)cc3)c3ccccc3S2(=O)=O)c1 | inactive: 27.7% |
| CCC(=O)N1CCc2cc(Br)cc(S(=O)(=O)CCC(=O)Nc3ccc(C)c(C)c3)c21 | inactive: 4.14% |
| COc1ccc(-c2noc(-c3ccc(NCc4cccnc4)c([N+](=O)[O-])c3)n2)cc1 | inactive: 3.06% |
| CCOc1ccc(NC(=O)c2cc(S(=O)(=O)N3CCCCC3)c[nH]2)cc1 | inactive: -4.51% |
| COc1ccc(CCNC(=O)Cn2c(=O)n(-c3cc(OC)c(OC)c(OC)c3)c(=O)c3ccccc32)cc1OC | inactive: 1.31% |
| COc1cccc(CNc2nc3c(-c4ccccc4)nnn3c3ccccc23)c1 | inactive: 6.32% |
| Cc1ccc2oc(=O)c3cnn(CC(=O)N4CCN(c5cc(Cl)ccc5C)CC4)c3c2c1 | inactive: 10.7% |
| COc1cccc(NS(=O)(=O)c2ccc3[nH]cc(C(=O)NCCc4ccccc4)c(=O)c3c2)c1 | inactive: 16% |
| CCOc1ccc(CCNCc2c(C(=O)O)n(Cc3ccc(C)cc3)c3cc(OC)ccc23)cc1 | inactive: 0.0535% |
| CN(Cc1ccccc1)C(=O)CSc1nc2ccsc2c(=O)n1-c1ccc(F)cc1 | inactive: -27% |
| CCOc1cc(C2c3c(oc4ccc(F)cc4c3=O)C(=O)N2Cc2ccco2)ccc1O (configuration not stated) | inactive: -3.48% |
| Cc1ccc(-c2cc(C(=O)NCc3cnn(C)c3)c3cc(Br)ccc3n2)cc1 | inactive: 26.9% |
| Cc1ccc(-n2c(SCC(=O)Nc3ccc4c(c3)OCO4)nc3c([nH]c4ccccc43)c2=O)cc1 | inactive: -0.694% |
| CCCCNc1nc(Oc2ccc(OCC(N)=O)nn2)nc(N2CCOCC2)n1 | inactive: -0.612% |
| COc1ccc(CCNc2ncnc3c2c(-c2ccccc2)cn3-c2ccc(F)cc2)cc1OC | inactive: -27.5% |
| CCC(=O)C1=C(c2cccc([N+](=O)[O-])c2)N(C(=O)CC)n2c(nnc2-c2ccccc2)S1 | inactive: 6.39% |
| CCc1ccccc1N(C)C(=O)c1cnc(N2CCOCC2)c2ccccc12 | inactive: 2.42% |
| Cc1ccc(Cc2nc3ccccc3nc2SCC(=O)NCc2ccc(F)cc2)cc1 | inactive: 9.93% |

| SMILES | activity change, negative = cytotoxicity |
| --- | --- |
| Cc1cccc(C(=O)N2CCc3cc(CNC(=O)Cc4ccc(F)cc4)ccc32)c1 | inactive: 2.73% |
| CN(C)c1ccc(CNC(=O)C2CCN(S(=O)(=O)c3ccc4c(ccn4C)c3)CC2)cc1 | inactive: 3.92% |
| CCN(C(=O)Cn1cc(S(=O)(=O)Cc2ccccc2Cl)c2ccccc21)c1ccccc1 | inactive: -16.5% |
| Cc1ccc(C)c(N2CCN(C(=O)Cn3c(-c4cccs4)cc4ccccc43)CC2)c1 | inactive: 2.96% |
| CCOC(=O)c1ccc(NC(=O)C(CC)Sc2nc3ncccc3o2)cc1 (configuration not stated) | inactive: -5.92% |
| Cc1ccc(N2CCN(C(=O)c3c4c(nc5ccccc35)C(=O)N(C3CCCCC3)C4)CC2)c(C)c1 | inactive: 22.2% |
| CCOC(=O)c1c(S(=O)(=O)NCC(=O)Nc2ccc(C)c(Cl)c2)c(C)n(C)c1C | inactive: -10.7% |
| CCC(C(=O)NCc1ccccc1OC)n1nc(C)n2c(cc3sccc32)c1=O (configuration not stated) | inactive: 6.73% |
| CC(C)(C)n1cnc2cc(NCc3ccccc3Cl)ccc21 | inactive: -7.76% |
| COc1ccc(NC(=O)C2CCCN2S(=O)(=O)c2cccc3cccnc23)cc1OC (configuration not stated) | inactive: 8.69% |
| CC(C)Oc1ccc(CNC(=O)c2ccc(NC(=O)N3CCSc4ncccc43)cc2)cc1 | inactive: 5.77% |
| CSc1ncc(C(=O)NCc2ccccc2)c(-c2ccccc2)n1 | inactive: -0.83% |
| Cc1ccccc1Cn1nnc2c(=O)[nH]c(C3CCN(C(=O)c4ccccc4)CC3)nc21 | inactive: -14.5% |
| CCOC(=O)c1cnc2ccc(C(=O)OC)cc2c1Nc1ccccc1CC | inactive: -9.25% |
| CCOc1ccc(C2c3[nH]c4ccccc4c3CCN2C(=O)Cc2cccc(OCC)c2OCC)cc1 (configuration not stated) | inactive: -22.8% |
| COc1ccc(-c2nc3sc(CCNC(=O)c4cccc(C(F)(F)F)c4)c(C)n3n2)cc1 | inactive: 14.3% |
| Cc1ccc(Cn2ccn(CC(=O)Nc3ccccc3C(F)(F)F)c(=O)c2=O)cc1 | inactive: -0.928% |
| CCOc1ccc(CCNC(=O)CS(=O)Cc2nc(-c3ccc(C)cc3)oc2C)cc1OCC (configuration not stated) | inactive: 0.542% |
| CCOC(=O)c1cnc2cc(C(F)(F)F)ccc2c1N1CCN(c2ccc(F)cc2)CC1 | inactive: -6.72% |
| COc1ccccc1CNC(=O)C1CCCN(c2nn3cc(-c4ccc(F)cc4)nc3s2)C1 (configuration not stated) | inactive: -1.43% |
| CCOCCc1nn2c(=O)cc(COC(=O)COc3ccccc3Cl)nc2s1 | inactive: -1.41% |
| Cc1ccc(NC(=O)CN2CCCN(Cc3ccccc3Cl)S2(=O)=O)c(C)c1 | inactive: -5.47% |
| COc1ccccc1CNC(=O)CCc1c(C)nc2cc(-c3ccccc3OC)nn2c1C | inactive: 9.57% |
